Assay results published in PMC6961345 (Antiviral Chemistry & Chemotherapy, 2018).

System: influenza A/Brisbane/59/2007 (H1N1) virus
Experiment: Time-of-addition experiment in dNHBE cells
Assay type: cell-based

| Structure (SMILES) | dose dependence of reduction of influenza A(H1N1) virus titers |
| --- | --- |
| C[n+]1ccc(C(=O)NCc2ccccc2)cc1 [enisamium, N-methyl-4-benzylcarbamidopyridinium] | dose dependent |
| CCC(CC)O[C@@H]1C=C(C(=O)O)C[C@H](N)[C@H]1NC(C)=O [oseltamivir carboxylate] | dose dependent |
